PubChem BioAssay AID445 (National Center for Advancing Translational Sciences (NCATS), 2006)
In all, about 110,000 compounds went through this assay and about 40 (0.04%) were called active. The inconclusive results got no clear call from the source; some entries with a clear call stand among them for comparison. Calls follow the shape of the dose curve; as a rule, active = well fitted curve in the direction sought with a large enough effect in the signal ratio (not every such curve was filed as active); inconclusive = small, poorly fitted or top-dose-only effect, or a change in a side signal; inactive = flat fitted curve, though single readings scatter; the % refers to the signal ratio. A potency beside an inconclusive call is a rough fit, not a confirmed value.

Assay: IkB Signaling;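 as to IkBa stabilization activation: 0% = basal untreated cells and 100% = reference inhibitor full response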
Details: ABC-DLBCL IkBa-CBG/CBR dual luciferase ratio (green luciferase fused to IkBa over red control in OCI-Ly3 lymphoma cells), 4 h; IkBa stabilization activation: at 57.1 µM (top of the series), scaled: untreated 0%, proteasome inhibitor 100% unless noted
Summary of the method: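 Luminescence ratio of IκBα-fused green versus native red beetle luciferase in OCI-Ly3 cells, 4 h post-doxycycline with compound; red signal alone, scaled from basal (0%) to zero light (-100%), flagged nonspecific or cytotoxic effects.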
Potency is read from the fitted curve at half-maximal effect.

Row | SMILES | IkBa stabilization activation | Potency
1 | CCOc1ccc(NC(=O)c2c(NC(=O)Cc3ccccc3)sc3c2CCCCC3)cc1 | inconclusive: 15.6% [signal inhibitor] | 
2 | Cc1ccc(NC(=O)CSc2cn(CC(=O)N3CCCC3)c3ccccc23)cc1Cl | inconclusive: 1.41% [signal inhibitor] | 
3 | COc1cccc(CNC(=O)Cn2nc(-c3ccc(Cl)cc3)ccc2=O)c1 | inconclusive: 6.03% [signal inhibitor] | 
4 | O=c1c(-c2cccs2)nc2cnc(N3CCOCC3)nc2n1-c1ccccc1 | inactive: -2.37% [at 11.4 µM, scaled: untreated 0%, proteasome inhibitor 100%] | 
5 | CC(=O)c1ccc(NC(=O)c2cc(C)nc3c2c(C)nn3-c2ccc(C)cc2)cc1 | inactive | 
6 | Cc1cccc2c1N(Cc1ccccc1OCCC(C)C)C(=O)C2=O | inactive | 
7 | COc1ccccc1-c1cc(C(=O)Nc2c(F)cc(F)cc2Br)no1 |  | inconclusive: 2 µM [signal inhibitor, full curve]
8 | COc1ccc2c(c1)c(=O)c(S(=O)(=O)c1ccccc1)cn2CC(=O)Nc1ccc(C)c(Cl)c1 | inconclusive: 0.465% [signal inhibitor] | 
9 | COc1ccc(-n2cc(C(=O)NCCc3cc(OC)ccc3OC)c3ccccc3c2=O)cc1 | inconclusive: 0.464% [signal inhibitor] | 
10 | CC1=C(C(=O)Nc2ccc(C)cc2C)C(c2cccs2)n2nc(SCc3cccc(C)c3)nc2N1 (stereo not given) | inconclusive: 2.79% [signal inhibitor] | 
11 | CCCc1nn2c(=O)cc(COC(=O)c3ccccc3NC(=O)COc3ccccc3)nc2s1 | inconclusive: 15.6% [signal inhibitor] | 
12 | CCOC(=O)N1CCc2c(sc3c2C(=O)NC(c2cc(OC)c(OC)c(OC)c2)N3)C1 (stereo not given) | inconclusive: -4.15% [signal inhibitor] | 
13 | COc1ccccc1NC(=O)c1c(NCc2ccc(C)o2)sc2c1CCCCC2 |  | inconclusive: 25.1 µM [signal inhibitor, single point]
14 | Cc1ccc(-c2nnc(SCC(=O)Nc3ccccc3F)o2)cc1 |  | inconclusive: 0.126 µM [signal inhibitor, full curve]
15 | COc1ccc(-c2cc(C(F)(F)F)n3nc(-c4ccccc4)cc3n2)cc1OC | inconclusive: 3.01% [signal inhibitor] | 
16 | CCOC(=O)C1CCN(Cc2nc3ccccc3c(=O)n2-c2ccc(OCC)cc2)CC1 | inconclusive: 4.29% [signal inhibitor] | 
17 | CCn1c(NCc2c[nH]c3ccccc23)nc2ccccc21 | inactive | 
18 | Cc1cc(Cl)ccc1OCCCC(=O)Nc1cccnc1 | inconclusive: 2.45% [signal inhibitor] | 
19 | CCCCSc1nnc2n(-c3ccc(OC)cc3)c(=O)c3c4c(sc3n12)COC(C(C)C)C4 (stereo not given) | inconclusive: 7.83% [signal inhibitor] | 
20 | O=C1N(Cc2ccccc2Cl)c2ccccc2C1(O)c1c[nH]c2ccccc12 (stereo not given) | inconclusive: -0.726% [signal inhibitor] | 

Row | SMILES | IkBa stabilization activation | Potency
21 | Cc1cc2nc(-c3cccnc3SCC(=O)NCc3ccco3)[nH]c2cc1C | inconclusive: 7.01% [signal inhibitor] | 
22 | O=C(COC(=O)c1ccccc1NC(=O)c1ccco1)Nc1ccc2c(c1)OCO2 | inconclusive: 4.11% [signal inhibitor] | 
23 | O=c1c(-c2ccccc2)nc2cnc(Nc3ccccc3)nc2n1C[C@H]1CCCO1 | inactive: 0.00581% [at 11.4 µM, scaled: untreated 0%, proteasome inhibitor 100%] | 
24 | Cc1ccc2oc(-c3ccc(C)c(NC(=O)C(C)(C)Oc4ccc(Cl)cc4)c3)nc2c1 |  | inconclusive: 12.6 µM [signal inhibitor, partial curve]
25 | CCOc1ccc(NC(=O)CSc2oc(-c3ccc(F)cc3)nc2S(=O)(=O)c2ccc(C)cc2)cc1 | inconclusive: 4.77% [signal inhibitor] | 
26 | Cc1noc(C)c1-c1nc(N2CCOCC2)c2ccccc2n1 | inactive: 0.371% [at 11.4 µM, scaled: untreated 0%, proteasome inhibitor 100%] | 
27 | Clc1ccccc1-c1nnc(COc2ccccc2)o1 | inactive | 
28 | Cc1nc2nc(NC(=O)c3ccc(C(C)(C)C)cc3)[nH]n2c(=O)c1Cc1ccccc1 | inconclusive: 3.43% [signal inhibitor] | 
29 | CCOC(=O)c1ccc(NC(=O)CSc2nc3cc4ccccc4cc3[nH]2)cc1 | inconclusive: 2.3% [signal inhibitor] | 
30 | O=C(Nc1ccc(Br)cc1F)c1cc(S(=O)(=O)NC2CCCCC2)ccc1F | inconclusive: 0.179% [signal inhibitor] | 
31 | CCCn1nc(NC(=O)c2ccncc2)c2cc3ccccc3nc21 | inconclusive: 3.56% [signal inhibitor] | 
32 | CCOc1ccccc1-n1c(SCC(=O)N(C(C)C)C(C)C)nnc1-c1cccnc1 | inconclusive: 9.5% [signal inhibitor] | 
33 | COc1ccc(CNC(=O)Cn2ccc3cc(S(=O)(=O)N4CCCCC4)ccc32)cc1OC | inconclusive: -1% [signal inhibitor] | 
34 | CSc1nnc2c3ccccc3n(CCc3ccccc3)c2n1 | inactive | 
35 | O=C(CCSCc1cccc(Cl)c1)N1CCN(c2ccc(Cl)cc2)CC1 | inconclusive: 0.817% [signal inhibitor] | 
36 | N#Cc1cccc(-c2nc(NCCN3CCOCC3)c3ccccc3n2)c1 | inactive: -10.3% [at 11.4 µM, scaled: untreated 0%, proteasome inhibitor 100%] | 
37 | Cc1ccccc1C(=O)N1CC(=O)Nc2ccc(Cl)cc2C1c1ccccc1 (stereo not given) | inconclusive: 0.803% [signal inhibitor] | 
38 | CCOc1ccc(NS(=O)(=O)c2ccc(C(=O)N(C)C)s2)cc1 | inconclusive: -1.94% [signal inhibitor] | 
39 | O=C(c1cccc(Cl)c1)N1c2nc(-c3ccco3)nn2C2(CCCCC2)[C@@H]2CCCC[C@@H]21 | inconclusive: 2.17% [signal inhibitor] | 
40 | C#CCn1c(=NC(=O)c2ccc3c(c2)OCCO3)sc2cc(OC)c(OC)cc21 | inconclusive: -4.31% [signal inhibitor] | 
